The values below come from PMC6919601, “Identification of Plasmodium dipeptidyl aminopeptidase allosteric inhibitors by high throughput screening” (PLoS ONE, 2019).

Structures are written as SMILES. Among all 110,000 compounds or so, about 230 (0.21%) showed an effect of 50% or more. The list shows a part of the results.
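Also: 30 min substrate incubation versus DMSO and 10 µM JCP410 controls.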

DPAP1, sequence (Q8IIJ9 whole entry, looked up): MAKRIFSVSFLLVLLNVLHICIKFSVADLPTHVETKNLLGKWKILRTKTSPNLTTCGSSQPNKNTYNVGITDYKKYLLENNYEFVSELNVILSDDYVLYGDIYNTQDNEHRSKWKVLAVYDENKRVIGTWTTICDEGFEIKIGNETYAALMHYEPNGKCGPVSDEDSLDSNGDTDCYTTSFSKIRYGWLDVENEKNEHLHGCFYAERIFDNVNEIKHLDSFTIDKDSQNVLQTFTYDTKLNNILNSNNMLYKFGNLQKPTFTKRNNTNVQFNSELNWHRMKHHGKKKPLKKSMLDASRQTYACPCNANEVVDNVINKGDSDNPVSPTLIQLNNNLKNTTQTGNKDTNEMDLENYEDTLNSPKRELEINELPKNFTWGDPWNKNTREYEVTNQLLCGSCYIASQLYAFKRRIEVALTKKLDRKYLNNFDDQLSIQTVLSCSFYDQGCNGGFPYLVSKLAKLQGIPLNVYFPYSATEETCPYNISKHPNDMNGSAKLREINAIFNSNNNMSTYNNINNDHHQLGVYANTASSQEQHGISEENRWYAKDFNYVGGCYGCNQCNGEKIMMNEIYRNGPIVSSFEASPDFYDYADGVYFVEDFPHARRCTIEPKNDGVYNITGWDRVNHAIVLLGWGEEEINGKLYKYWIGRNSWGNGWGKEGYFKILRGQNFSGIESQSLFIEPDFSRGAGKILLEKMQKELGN

The experiment addresses DPAP1 (Plasmodium falciparum, UniProt Q8IIJ9). The experiment is described as follows: primary screen, percent inhibition; read by cleavage of a fluorogenic dipeptide substrate; higher = more effect of the substance. More on the design: species or system P. falciparum D10 trophozoite lysates; single well.
For the compound `CCS(=O)(=O)c1ncc(Cl)c(C(=O)Nc2sc3c(c2C#N)CCCC3)n1`, the “% Inhibition @ 10 uM” value is recorded as -4.64%. On to `CC(=O)c1nn(-c2ccc(F)cc2)nc1NC1CCc2ccccc21` (stereo not drawn), for which the “% Inhibition @ 10 uM” value is given as -1.71%. As for `Cc1c2cnn(CC(=O)N3CCC(C(N)=O)CC3)c(=O)c2c(C)n1Cc1ccc(F)cc1`, the figure is -2.17%. As to `CN(Cc1ccccc1)C(=O)C1CCC(CNS(=O)(=O)c2cccc3nsnc23)CC1` (stereo not drawn), the “% Inhibition @ 10 uM” value was -0.465%.

Consider `CCOC(=O)c1c(CN2CCN(C(=O)OCC)CC2)n(-c2ccccc2)c2ccc(O)cc12`, for which the “% Inhibition @ 10 uM” value was -0.958%.

As to `CCN(CC)CC(=O)NC(C)(C)Cc1ccc(O)cc1`, the “% Inhibition @ 10 uM” value is given as -0.473%.

As for `Cc1oc(-c2ccccc2F)nc1CS(=O)(=O)CC(=O)NCCCN1CCc2ccccc2C1`, the “% Inhibition @ 10 uM” value is listed as -1.89%.

As to `C(=C\c1ccccc1)/CN1CCN(C2CCC(c3ccccc3)CC2)CC1` (stereo not drawn), the “% Inhibition @ 10 uM” value is given as -1.82%. As for `O=C(NC1CCN(c2ncccn2)CC1)C1CC1`, the figure is -2.88%; as for `CCOCCCNC(=O)CN1N=C(c2ccc(OC)cc2)CCC1=O`, 3.24%.

`CC(=C1C(=O)c2ccccc2C1=O)N1CCC(C(N)=O)CC1`: the “% Inhibition @ 10 uM” value is recorded as -4.68%. For `CCCCOc1ccc(C(C)NC(=O)CN2CCN(Cc3ccc(Cl)cc3)C2=O)cc1` (stereo not drawn), the “% Inhibition @ 10 uM” value is -4.76%. As for `COc1ccccc1C1C(C(=O)Nc2cccnc2)=C(C)Nc2nc(-c3cccs3)nn21` (stereo not drawn), the figure is -0.123%; as for `COc1ccc(/C=C(\C#N)c2nc(-c3ccc(OC)c(OC)c3)cs2)c(OC)c1`, 3.45%; as for `Oc1cc(-c2ccccc2)nc2ncnn12`, 0.392%. Regarding `COc1cc(NC(=O)c2sc3nc(-c4ccncc4)ccc3c2N)cc(OC)c1OC`, the “% Inhibition @ 10 uM” value is -2.8%. With `COC(=O)C1=CNC=C(C(=O)OC)C1c1cccc(OCc2ccccc2)c1`, the “% Inhibition @ 10 uM” value came out at 1.37%. For the compound `Cc1ccc2[nH]c3c(c2c1)CCCC3NCCO` (stereo not drawn), the “% Inhibition @ 10 uM” value was -1.04%. As for `COc1ccc(-c2nn(CCC(=O)O)c3nc(C)cc(C)c23)c(OC)c1`, the figure is -4.69%; as for `O=C1OC(c2cccc3ccccc23)=N/C1=C/c1ccc(F)cc1`, -0.1%; as for `COc1ccc(-n2ncc(C(=O)Nc3cccnc3)c2C2CCN(C(=O)OC(C)(C)C)CC2)cc1`, -3.65%. Regarding `CC(CNC(=O)c1cnn(-c2ccccc2)c1-n1cccc1)c1ccccc1` (stereo not drawn), the “% Inhibition @ 10 uM” value was 3.4%.

Turning to `Cc1noc2ncnc(NCCCN3CCCC(C)C3)c12` (stereo not drawn), the “% Inhibition @ 10 uM” value is -6.14%. For the compound `O=S1(=O)CCC(SC2CCS(=O)(=O)C2)C1` (stereo not drawn), the “% Inhibition @ 10 uM” value is given as -5.45%. As for `CCc1nnc(NS(=O)(=O)c2ccc(NC(=O)c3ccccc3F)cc2)s1`, the figure is 7.4%; as for `Cn1c(=O)c2sccc2n2c(CCCC(=O)NCc3ccc4c(c3)OCO4)nnc12`, 0.351%.

Take `Cc1ccc(CCNCc2c(C(=O)O)n(Cc3ccc(C)cc3)c3cc(C)ccc23)cc1`: the “% Inhibition @ 10 uM” value came to 0.984%.
